Where “and” joins values, the source holds several entries; their conditions need not be identical. Identical values can stand only once. This list was built around the results that the source calls inconclusive (neither active nor inactive); the mix of calls is not that of the screen. Where the call is inconclusive, the potency comes from a doubtful curve fit. The source holds several records for some structures; these can differ, active in one and inactive in another. Calls of active or inactive are those of the source. Calls follow the shape of the dose curve; as a rule, active = well fitted activation curve with a large enough effect in the repeat runs; inconclusive = weak or mixed curves; inactive = flat fitted curve, though single readings scatter.
Assay: A CellTox Green Cytotoxicity Assay to monitor cytotoxicity in HepG2 cells - 32 hour (AID 1224883); also: nearly all actives have a fitted effect of over 50% in size
Conditions: CellTox Green fluorescence; series mostly up to 76.8 µM
Procedure, shortened: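 Read-out is fluorescence of a cyanine dye excluded from live cells that stains DNA of dead HepG2 cells, with signal proportional to cytotoxicity. Plates were read at 0, 8, 16, 24, 32 and 40 h after compound addition.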
Potency is read from the fitted curve at half-maximal effect; tags tell the direction and shape of the fitted curve.

Structure (SMILES) | Potency
Oc1ccc(Cl)cc1Cc1ccccc1 | inconclusive: 23.9 µM [activator, single point]
O=C1c2ccccc2C(=O)C1C(=O)C(c1ccccc1)c1ccc(Cl)cc1 (stereo not drawn) | active: 54.9 µM
CC(C)OC(=O)C(O)(c1ccc(Cl)cc1)c1ccc(Cl)cc1 | active: 27.5 µM
Nc1ccc([N+](=O)[O-])cc1 | active: 43.6 µM
ClC1=C(Cl)[C@]2(Cl)[C@@H]3[C@@H](Cl)[C@H]4O[C@H]4[C@@H]3C1(Cl)C2(Cl)Cl | inconclusive: 54.9 µM [activator, single point]
CN(C)c1ccc(N=O)cc1 | inconclusive: 19.5 µM [activator, single point]
Clc1ccc(C(c2ccc(Cl)cc2)C(Cl)Cl)cc1 | inconclusive: 54.9 µM [activator, single point]
O=C(CCl)c1ccc(Cl)cc1Cl | inconclusive: 27.4 µM [activator, partial curve] and active: 23.9 µM
CCC(C)(C)c1ccc(O)c(C(C)(C)CC)c1 | inconclusive: 61.6 µM [activator, single point]
ClC1C(Cl)C(Cl)C(Cl)C(Cl)C1Cl (stereo not drawn) | inconclusive: 54.9 µM [activator, single point] [middle of 4 runs]
CC(=O)[O][Sn]([c]1ccccc1)([c]1ccccc1)[c]1ccccc1 | inconclusive: 0.0347 µM [activator, full curve, poor fit]
CNP(=O)(OC)Oc1ccc(C(C)(C)C)cc1Cl (stereo not drawn) | inconclusive: 49 µM [activator, single point]
O=[N+]([O-])/C=C/c1ccccc1 | inconclusive: 17.4 µM [activator, single point]
S=C=NCCc1ccccc1 | inconclusive: 55.1 µM [activator, single point]
CCCCCCCCCCn1cc[n+](C)c1 | inconclusive: 54.9 µM [activator, single point] [middle of 4 runs]
O=S1OC[C@@H]2[C@H](CO1)[C@]1(Cl)C(Cl)=C(Cl)[C@@]2(Cl)C1(Cl)Cl (stereo partly drawn) | inconclusive: 54.9 µM [activator, single point]

Assay: A CellTox Green Cytotoxicity Assay to monitor cytotoxicity in HEK293 cells - 8 hour (AID 1224884); also: nearly all actives have a fitted effect of over 35% in size
Conditions: CellTox Green fluorescence; series mostly up to 76.8 µM
Procedure, shortened: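 Nonlytic real-time cytotoxicity: HEK293 + CellTox Green reagent plated, 5 h preincubation, pintool compound addition (23 nL in DMSO), 37 C for 40 h, fluorescence measured at successive time points.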

Structure (SMILES) | Potency
Clc1ccc(C(Cl)(Cl)Cl)cc1Cl | active: 42.7 µM
Oc1ccc(Cl)cc1Cc1ccccc1 | inconclusive: 35.1 µM [activator, partial curve]
O=C1c2ccccc2C(=O)C1C(=O)C(c1ccccc1)c1ccc(Cl)cc1 (stereo not drawn) | inconclusive: 38.9 µM [activator, partial curve, poor fit]
Nc1ccc([N+](=O)[O-])cc1 | inconclusive: 49 µM [activator, partial curve, poor fit]
CC(O)C(=O)[O][Hg][c]1ccccc1 (stereo not drawn) | inconclusive: 49 µM [activator, single point]
ClC1=C(Cl)[C@]2(Cl)[C@@H]3[C@@H](Cl)[C@H]4O[C@H]4[C@@H]3C1(Cl)C2(Cl)Cl | inconclusive: 49 µM [activator, single point]
ClC1C(Cl)C(Cl)C(Cl)C(Cl)C1Cl (stereo not drawn) | inconclusive: 49.4 µM [activator, single point]
CCCCCCCC[N+](C)(CCCCCCCC)CCCCCCCC | active: 24.5 µM and inconclusive: 19.5 µM [activator, partial curve] and active: 13.8 µM
C=CCC1=C(C)C(OC(=O)C2C(C=C(C)C)C2(C)C)CC1=O (stereo not drawn) | active: 51.9 µM
CC(=O)[O][Sn]([c]1ccccc1)([c]1ccccc1)[c]1ccccc1 | active: 0.347 µM
CCCCCCCCCCCCn1cc[n+](C)c1 | inconclusive: 55.4 µM [activator, single point] [middle of 4 runs]
O=S1OC[C@@H]2[C@H](CO1)[C@]1(Cl)C(Cl)=C(Cl)[C@@]2(Cl)C1(Cl)Cl (stereo partly drawn) | inconclusive: 54.9 µM [activator, single point]

— PubChem BioAssay (Tox21)
